39 compounds from PubChem BioAssay AID504467 (National Center for Advancing Translational Sciences (NCATS), 2011) can be followed below.

Screen size: about 330,000 compounds; about 7,700 (2.3%) were called active. Inconclusive results (about 26%) are left out. The call rests on the fitted dose curve; in most records, active means well fitted inhibition curve with a large enough effect; inconclusive means small, poorly fitted or top-dose-only effect, or effect the other way; inactive means flat fitted curve, though single readings scatter. The list shows a part of the results, in another mix than the full data.
On the % scale 0 is the no-effect control and ±100 the full control effect; potency means the concentration at half of the fitted maximal effect.

This experiment in a line: qHTS screen for small molecules that inhibit ELG1-dependent DNA repair in human embryonic kidney (HEK293T) cells expressing luciferase-tagged ELG1. Further: nearly all actives have a fitted effect of over 55% in size. The conditions noted are these: HEK293T ELG1-luciferase reporter, luminescence, 16 h, DNA damage induced by 5-fluorouridine; series mostly up to 46.1 µM; activity change, negative = inhibition: at the top concentration. The source says:
NIH Molecular Libraries Probe Production Network [MLPCN] NIH Chemical Genomics Center [NCGC] MLPCN Grant: 1 R03 MH092164-01 Assay Provider: Kyungjae Myung, NHGRI, NIH Keywords: MLPCN, qHTS, NCGC, genotoxicity, cancer Assay Overview: Cancer cells divide rapidly compared to normal cells in the body. During cell division, cancer cells need to duplicate their genome by DNA replication. The failure of genome duplication leads to cancer cells' death. Therefore, inhibitors of DNA replication could specifically kill cancer cells. Based on this concept, many chemotherapeutic agents were developed and have been used to treat cancer patients. However, there are a limited number of agents available in the clinical setting, and some of those that do exist have low efficacy and severe side effects. Therefore, if we can find the compounds that effectively block DNA replication either by directly damaging DNA or by inhibiting other cellular mechanisms, the options for cancer treatment will be broadened. With this in mind, we developed a quantitative high-throughput ELG1-luciferase reporter gene assay. Small molecules that specifically block ELG1 function in response to DNA damage can be identified by monitoring the suppression of luciferase activity. Since ELG1 defines a pathway for repairing DNA damage, agents blocking ELG1 function can be used to sensitize cancer cells to chemotherapeutic agents whose mechanism of action involves the induction of DNA damage.
Assay Protocol Summary: For genotoxicity screening, 2,000 cells in 4 uL/well were dispensed into white, solid-bottom 1536-well plates using a solenoid-based dispenser. Following transfer of 1 uL 5-Fluorouridine and 23 nL compound or DMSO vehicle by a pin tool, the plates were incubated 16 hr at 37 °C and 5% CO2. 5 ul ONE-Glo (Promega) was then added to each plate and following a 30 min incubation at room temperature, luciferase activity was quantified on a ViewLux CCD-based plate reader.
In the case of `C[C@@H]1CN([C@H](C)CO)C(=O)c2cccc(NC(=O)NC3CCCCC3)c2O[C@@H]1CN(C)C(=O)Nc1ccc(C(F)(F)F)cc1`, the “activity change, negative = inhibition” value is inactive: -21.9%.
Turning to `Cn1c(=O)c2c(nc(NCc3ccc4c(c3)OCO4)n2Cc2ccccc2)n(C)c1=O`, the Potency was active: 16.4 µM.
As to `COC(=O)[C@H](C)[C@@H]1C[C@@]1(C)[C@@H](NC(=O)OCc1ccccc1)c1ccccc1`, the “activity change, negative = inhibition” value was inactive: 1.28%.
In the case of `CC1C(=O)N(Cc2ccccc2)c2ccccc2N1C(=O)c1ccccc1` (centres undefined), the Potency was active: 25.9 µM.
For the compound `C[C@H](NC(=O)c1nc[nH]c1C(=O)N1CCN(C(=O)OC(C)(C)C)CC1)c1ccccc1`, the “activity change, negative = inhibition” value was inactive: 0%.
On to `CC(C)(C)NC(=O)/C(=C\c1cccnc1)NC(=O)c1ccco1`, for which the “activity change, negative = inhibition” value was inactive: 3.75%.
`Cc1cn(C2C=CC(CO)O2)c(=O)[nH]c1=O` (centres undefined): the “activity change, negative = inhibition” value is inactive: 23.5%.
On to `O=C(Nc1cccc(NC(=O)c2ccco2)c1)c1ccc([N+](=O)[O-])cc1`, for which the Potency was active: 11.6 µM.
On to `O=c1cc(-c2ccc(O)cc2)oc2cc(O)c([C@@H]3O[C@H](CO)[C@@H](O)[C@H](O)[C@H]3O)c(O)c12`, for which the “activity change, negative = inhibition” value was inactive: 12.5%.
For `CCOc1ccc(CN(C)CC(=O)Nc2ccc3c(c2)CCC3)cc1OC`, the Potency was active: 16.4 µM.
As for `CN(c1ccccc1)S(=O)(=O)c1cccc(NC(=O)C2=NN(c3ccccc3)C(=O)CC2)c1`, the Potency was active: 7.3 µM.
As to `CCOc1ccc(C(C)=O)cc1COC(=O)c1ccc2c(c1)NC(=O)CS2`, the Potency is active: 16.4 µM.
Regarding `Cc1c(C(=O)N2CCN(c3ccc([N+](=O)[O-])cc3)CC2)oc2ccccc12`, the Potency is active: 11.2 µM.
As for `C=CCC[C@H](Cc1ccc(F)cc1)C(=O)OC[C@@H](C)NC(=O)[C@@H](CC=C)CC(=O)N[C@H](CO)Cc1ccccc1`, the “activity change, negative = inhibition” value is inactive: -9.41%.
As to `CCO/C([O-])=N/c1c[n+](N2CCOCC2)no1`, the Potency result was “inactive”.
For the compound `Cc1cc(C)c[n+](C2=C([O-])c3ccccc3C(=O)/C2=N\S(=O)(=O)c2cccs2)c1`, the Potency is active: 11.6 µM.
Regarding `O=C(C1=C[C@H](c2coc3ccccc3c2=O)C[C@H](OCc2ccc(CO)cc2)O1)N1CCN(Cc2ccccc2)CC1`, the “activity change, negative = inhibition” value is inactive: -0.599%.
Turning to `NS(=O)(=O)c1ccc(CCNc2nc(C(F)(F)F)nc3ccccc23)cc1`, the Potency was active: 11.6 µM.
Turning to `O=C(CCCN1C(=O)/C(=C/c2cccs2)SC1=S)Nc1ccccn1`, the “activity change, negative = inhibition” value was inactive: -18.9%.
On to `Cc1ccc(S(=O)(=O)N2C[C@@H]3[C@H]4CC[C@H](C4)[C@@H]3[C@@H](C)[C@H]2c2ccco2)cc1`, for which the “activity change, negative = inhibition” value was inactive: -6.55%.
For the compound `CCCCCCCCCCOC(=O)Cn1c(COc2ccc(OC)cc2)[n+](C)c2ccccc21`, the “activity change, negative = inhibition” value was inactive: -1.2%.
For the compound `O=C(O)C1=C[C@H](c2coc3ccccc3c2=O)C[C@H](OCCCCO)O1`, the “activity change, negative = inhibition” value is inactive: 6.82%.
As to `CC(C)Cn1c(N)c(C(=O)COC(=O)c2cc(C3CC3)nc3ccccc23)c(=O)n(C)c1=O`, the Potency is active: 23.1 µM.
With `Cc1ccc(C(=O)Nc2ccc(C)c(S(=O)(=O)Nc3ccccc3Cl)c2)s1`, the Potency is active: 20.6 µM.
Turning to `C=CC[C@H](CC(=O)NCCO)C(=O)N[C@@H](COC(=O)[C@@H](CC=C)CC(=O)OC(C)(C)C)Cc1c[nH]c2ccccc12`, the “activity change, negative = inhibition” value is inactive: -3.33%.
On to `COC(=O)N1C(=O)[C@](Cc2ccccc2)(c2ccccc2)N1C(=O)OC`, for which the “activity change, negative = inhibition” value is inactive: 0%.
Take `CCCCOC(=O)C1CCC[C@@H](C)N1` (some centres undefined): the “activity change, negative = inhibition” value is inactive: 20.7%.
`CCOC(=O)N1CC=C2C(C#N)=C(N)C(C#N)(C#N)[C@H](c3cccs3)[C@H]2C1`: the “activity change, negative = inhibition” value was inactive: 0%.
Turning to `CCOC(=O)c1c(NC(=O)c2cccs2)sc2c1CC(C)(C)OC2`, the Potency was active: 9.2 µM.
Regarding `O=C1OC[C@@H]2CCCN2C(=O)[C@@H](CC(=O)N(CCO)Cc2ccccc2)C/C=C\CC[C@H]1Cc1ccc(F)cc1`, the “activity change, negative = inhibition” value was inactive: -22.9%.
In the case of `C[C@H](NC(=O)c1nc[nH]c1C(=O)NCC(=O)OC(C)(C)C)c1ccccc1`, the “activity change, negative = inhibition” value was inactive: -5.77%.
For the compound `Cc1ccc(C(=O)N/C(=C/c2ccccc2)C(=O)NCC2CCCO2)cc1` (centres undefined), the “activity change, negative = inhibition” value was inactive: 2.86%.
Still for that read-out and setting: under `CC1=NN(c2ccccc2)C(=O)/C1=C/c1cn(C)c2ccccc12` stands inactive: -14.9%; under `CCOC(=O)[C@@H]1[C@H]2COc3ccccc3[C@@H]2N2C(=O)N(c3cccc(C)c3)C(=O)[C@@]12C`, inactive: 17.9%; under `COc1cc2nc(N3CCN(C(=O)[C@@H]4CCCO4)CC3)nc(N)c2cc1OC`, inactive: -7.14%.
For `CC1(C)Oc2ccc3ccc(=O)oc3c2[C@H](O)[C@H]1O`, the “activity change, negative = inhibition” value is inactive: 28.3%.
In the case of `O=C1NCC(O)=C1C=NC12CC3CC(CC(C3)C1)C2`, the “activity change, negative = inhibition” value was inactive: 2.26%.
Regarding `COc1ccc(Br)cc1/C=C/C(=O)Nc1ccc(C)cc1`, the Potency is active: 20.6 µM.
For `CNC[C@H]1Oc2c(NS(=O)(=O)c3ccc(OC)cc3)cccc2C(=O)N([C@H](C)CO)C[C@@H]1C`, the “activity change, negative = inhibition” value is inactive: 4.95%.
